For some of these results: Most of the strong results are listed elsewhere, so they are rarer here than in the full data. Only a part is listed here, and it is no random draw.
Key:
Details in all cases: concentration: 1 μM,replicates: in singlicate; n = 1
MEK3 = test system: T1, MEK3
T1 construct: gene MAP2K3

MEK4 = test system: T2, MEK4
T2 construct: gene MAP2K4

MEK5 = test system: T3, MEK5
T3 construct: gene MAP2K5

MEK6 = test system: T4, MEK6
T4 construct: gene MAP2K6

MELK = test system: MELK
MERTK = test system: MERTK
MET = test system: MET
MINK = test system: T5, MINK
T5 construct: gene MINK1

MKK7 = test system: MKK7
MKNK1 = test system: MKNK1
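Further: KINOMEscan kinase panel screen.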

SMILES	%Inh (MEK3) [%]	%Inh (MEK4) [%]	%Inh (MEK5) [%]	%Inh (MEK6) [%]	%Inh (MELK) [%]	%Inh (MERTK) [%]	%Inh (MET) [%]	%Inh (MINK) [%]	%Inh (MKK7) [%]	%Inh (MKNK1) [%]
O=C1NC(=O)C(c2ccccc2)=C1Nc1ccc(Cl)c(C(=O)O)c1 [SB-390532]	0	28	34	0	0	0	23	0	0	28
O=C1NC(=O)C(c2ccccc2)=C1Nc1cc(Cl)c(O)c(Cl)c1 [SB-390530]	5	10	32	0	0	0	0	23	34	0
COc1cccc(C2=C(Nc3ccc(SC)cc3)C(=O)NC2=O)c1 [SB-331032]	26	16	25	17	23	0	0	4	0	0
O=C1NC(=O)C(c2ccc(Cl)cc2)=C1Nc1ccc(O)c(Cl)c1 [SB-405367]	12	18	41	0	0	0	0	4	0	0
CSc1ccc(NC2=C(c3cccc(Cl)c3)C(=O)NC2=O)cc1 [SB-341528]	1	0	49	0	44	0	0	0	0	0
COc1ccc(C2=C(Nc3cccc(Cl)c3)C(=O)NC2=O)cc1 [SB-326892]	0	0	6	0	18	2	0	12	0	5
O=C1NC(=O)C(c2ccc(Cl)cc2)=C1Nc1cccc(C(=O)O)c1 [SB-360737]	0	15	0	0	0	11	0	0	25	0
Cc1ccc(C)c(Oc2nccc(-c3c(-c4ccc(F)cc4)ncn3C3CCNCC3)n2)c1.O=C(O)C(F)(F)F.O=C(O)C(F)(F)F.O=C(O)C(F)(F)F [SB-284852]	0	0	0	0	15	9	0	44	0	2
O=C1NC(=O)C(c2ccc(Cl)cc2)=C1Nc1cccc(O)c1 [SB-333613]	24	27	37	0	13	1	0	13	24	0
O=C1NC(=O)c2c1c(-c1ccccc1)cc1[nH]c3ccc(O)cc3c21	51	21	98.1	19	54	0	0	96.1	0	28
Cc1cc(C)cc(Oc2nccc(-c3c(-c4ccc(F)cc4)ncn3C3CCNCC3)n2)c1.O=C(O)C(F)(F)F.O=C(O)C(F)(F)F.O=C(O)C(F)(F)F [SB-284851]	12	0	10	0	0	4	13	33	0	0
O=C1NC(=O)C(c2ccccc2Cl)=C1Nc1cccc(C(=O)O)c1 [SB-390526]	0	11	10	0	3	0	0	5	0	0
O=C1NC(=O)C(c2ccc(Cl)cc2)=C1Nc1ccccc1 [SB-317661]	49	28	47	16	0	2	0	18	35	0
O=C1NC(=O)C(c2ccccc2Cl)=C1Nc1ccccc1 [SB-376715]	0	7	30	9	23	25	0	0	0	0
CS(=O)(=O)c1ccccc1-c1nc(-c2ccc(F)cc2)c(-c2ccncc2)[nH]1 [SB-213663]	40	0	77	0	34	18	1	40	0	40
O=C(O)c1ccc(-c2nc(-c3ccc(F)cc3)c(-c3ccncc3)[nH]2)cc1 [SB-202620]	28	20	66	90	26	1	21	15	0	0

From article PMC5540273 (PLoS ONE, 2017)
